The other results are listed elsewhere or left out. The full chains were built here from the parent and the listed change. Inactive controls read about 0.05.
B1: TEV protease; numbered along this chain (parent)
chain: MGESLFKGPRDYNPISSSICHLTNESDGHTTSLYGIGFGPFIITNKHLFRRNNGTLVVQSLHGVFKVKDTTTLQQHLVDGRDMIIIRMPKDFPPFPQKLKFREPQREERICLVTTNFQTKSMSSMVSDTSCTFPSGDGIFWKHWIQTKDGQCGSPLVSTRDGFIVGIHSASNFTNTNNYFTSVPKNFMELLTNQEAQQWVSGWRLNADSVLWGGHKVFMVKPEEPFQPVKEATQL

Variants of: B1
Experiment: raw area under fraction-flipped curve 0-4 h after induction (AUC4h, not background-subtracted), DNA-recorder readout of cleavage of the substrate (dimensionless); higher = more cleavage of the substrate by the protease variant
Settings: temperature: 34 °C; time window: 0-4 h after rhamnose induction
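Also: Bxb1 expression induced with 0.2% (w/v) L-rhamnose at OD600 near 0.5, cultures sampled hourly, flipped fraction per protease–substrate barcode pair counted by paired-end Illumina sequencing.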

| Variant | area with substrate ENLFFQS | area with substrate ENLHFQS | area with substrate ENLKFQS | area with substrate ENLNFQS | area with substrate ENLPFQS | area with substrate ENLQFQS | area with substrate ENLRFQS | area with substrate ENLWFQS | area with substrate ENLGFQS | area with substrate ENLLFQS |
| --- | --- | --- | --- | --- | --- | --- | --- | --- | --- | --- |
| D82V | 0.0574 | 0.0799 | 0.0584 | 0.0132 | 0.0549 | 0.0267 | 0.0701 | 0.0503 | – | – |
| S209A | – | 0.073 | 0.0699 | 0.0623 | – | – | 0.0858 | – | 0.0905 | – |
| T159V | – | 0.0674 | 0.0707 | – | – | – | – | – | – | 0.0511 |
| T159K | – | 0.0744 | 0.0722 | 0.071 | 0.0643 | – | – | – | – | – |
| S60G | 0.0403 | – | – | 0.0615 | – | – | – | – | – | – |
| G2S | – | – | – | 0.05 | – | 0.0743 | – | – | – | – |
| G2N | 0.0724 | – | 0.099 | – | – | – | 0.0888 | – | – | – |
| G2H | – | – | 0.0695 | 0.0815 | 0.0591 | 0.0709 | 0.0782 | – | – | – |
| Q97D | – | – | 0.069 | 0.0709 | 0.0713 | 0.072 | – | 0.0682 | 0.0721 | – |
| Q97R | – | 0.065 | – | – | – | – | – | – | – | – |
| F163D | – | – | – | – | 0.0633 | – | – | – | – | – |
| F163M | 0.101 | 0.0771 | – | 0.0808 | 0.0613 | – | – | – | – | – |
| F163A | – | – | 0.0709 | 0.0668 | – | – | – | – | 0.0814 | – |
| T119R | 0.0755 | – | 0.0803 | – | – | – | – | – | – | – |
| T119Q | 0.0936 | – | – | 0.0785 | – | 0.0826 | – | 0.0647 | – | – |
| T119C | 0.08 | 0.0789 | – | – | 0.0666 | – | – | 0.0667 | – | – |
| T119W | – | 0.0805 | – | 0.0565 | – | 0.0569 | – | – | 0.0586 | – |
| T119L | – | – | 0.0823 | – | – | – | – | – | – | – |
| G37C | 0.0685 | – | – | – | – | – | – | – | – | – |
| T132K | – | – | – | 0.0684 | – | – | – | – | – | – |
| K7W | 0.0789 | – | 0.097 | 0.0604 | 0.0878 | – | 0.0859 | – | – | – |

| Variant | area with substrate ENLFFQS | area with substrate ENLHFQS | area with substrate ENLKFQS | area with substrate ENLNFQS | area with substrate ENLPFQS | area with substrate ENLQFQS | area with substrate ENLRFQS | area with substrate ENLWFQS | area with substrate ENLGFQS | area with substrate ENLLFQS |
| --- | --- | --- | --- | --- | --- | --- | --- | --- | --- | --- |
| K7S | – | – | 0.114 | – | – | – | – | – | – | – |
| K7H | 0.0823 | 0.0761 | – | 0.0778 | – | – | – | 0.0612 | – | – |
| Q118L | 0.0833 | – | – | 0.0688 | – | – | – | 0.0807 | – | 0.0598 |
| L61T | – | 0.0648 | – | 0.0645 | 0.0645 | – | – | – | – | – |
| Q227A | – | – | – | – | 0.0633 | 0.0688 | – | – | – | – |
| F95N | – | – | 0.0613 | 0.0614 | 0.055 | – | 0.0776 | – | – | – |
| C111A | 0.0971 | – | – | 0.0669 | – | – | 0.0845 | – | 0.0584 | – |
| T147S | – | – | 0.0697 | – | – | 0.0535 | – | – | – | – |
| N193C | 0.0679 | – | 0.0693 | – | 0.0578 | 0.0915 | – | 0.0636 | – | – |
| H215S | 0.0431 | – | – | 0.0548 | – | – | – | – | – | 0.0579 |
| M83E | – | 0.0448 | – | 0.0546 | 0.051 | – | 0.0679 | 0.0574 | 0.0465 | – |
| A170Q | – | – | – | 0.0929 | – | – | – | – | – | – |
| A170S | 0.0673 | – | – | – | 0.0699 | – | – | – | – | – |
| A170K | 0.064 | 0.0885 | – | – | – | 0.0592 | – | – | 0.0811 | 0.0678 |
| A170R | 0.0615 | 0.0584 | – | – | – | – | – | 0.0479 | – | – |
| A170F | – | – | – | 0.0731 | 0.0591 | – | – | – | – | – |
| N186F | – | – | 0.0629 | 0.0616 | – | – | 0.0875 | – | – | – |
| N186H | 0.0838 | 0.0407 | – | – | – | 0.078 | – | – | – | – |
| N186T | 0.101 | – | – | – | – | – | 0.0791 | – | – | – |
| D91M | 0.0818 | – | 0.0869 | – | 0.0544 | – | – | – | – | – |
| I85A | – | 0.0611 | – | 0.0414 | – | – | – | 0.0584 | – | 0.055 |

| Variant | area with substrate ENLFFQS | area with substrate ENLHFQS | area with substrate ENLKFQS | area with substrate ENLNFQS | area with substrate ENLPFQS | area with substrate ENLQFQS | area with substrate ENLRFQS | area with substrate ENLWFQS | area with substrate ENLGFQS | area with substrate ENLLFQS |
| --- | --- | --- | --- | --- | --- | --- | --- | --- | --- | --- |
| L211T | – | – | 0.0822 | – | – | – | – | – | – | – |
| L211I | – | 0.0813 | 0.0842 | – | – | – | – | – | – | – |
| N177Q | – | – | – | 0.0721 | 0.0625 | – | – | – | – | 0.0759 |
| N172L | 0.055 | – | – | – | – | – | – | – | – | – |
| N172W | – | – | 0.0508 | – | – | – | – | – | – | – |
| N172H | 0.0596 | 0.0506 | 0.0645 | 0.0521 | – | – | – | – | – | 0.0481 |
| N172V | 0.0477 | 0.0582 | – | – | – | – | 0.046 | – | – | – |
| N172A | – | – | 0.0574 | – | – | – | – | – | – | – |
| K98V | 0.0914 | – | 0.0795 | 0.0625 | 0.0568 | – | – | – | – | – |
| G153S | – | 0.056 | – | – | 0.0575 | – | – | – | – | 0.0448 |
| G153Q | 0.0403 | – | 0.0309 | 0.0488 | 0.0757 | – | – | – | – | 0.0435 |
| G138F | 0.0837 | – | 0.0674 | – | – | – | – | – | – | 0.0796 |
| G138T | 0.0792 | – | – | – | – | – | – | – | – | – |
| G138A | – | – | – | 0.0574 | – | – | – | – | – | – |
| G80L | 0.0753 | – | – | – | 0.0613 | 0.0761 | 0.0656 | – | 0.0504 | – |
| L99W | – | – | – | – | 0.0657 | – | 0.0566 | 0.0604 | – | – |
| L99N | – | 0.0649 | – | – | – | – | 0.0968 | 0.039 | – | – |
| V165M | 0.0602 | – | 0.0613 | 0.0362 | 0.0752 | – | – | – | 0.0371 | – |
| V200D | 0.0738 | 0.0659 | – | – | – | – | – | 0.0738 | 0.0547 | – |

Same assay, conditions: temperature: 34 °C; time window: 0-4 h after rhamnose induction

| Variant | area with substrate ENLVFQS | area with substrate ENLEFQS | area with substrate ENLIFQS | area with substrate ENLSFQS | area with substrate ENLTFQS | area with substrate ENLMFQS |
| --- | --- | --- | --- | --- | --- | --- |
| T159V | 0.091 | – | – | – | – | – |
| T159K | 0.117 | 0.0693 | 0.0505 | – | – | – |
| S60G | – | – | – | 0.0371 | – | – |
| G2S | – | – | – | – | 0.0619 | – |
| G2N | – | – | – | – | – | 0.0721 |
| Q97D | – | – | – | – | – | 0.0787 |
| F163M | – | – | – | 0.0562 | – | – |
| T119R | 0.0936 | – | – | – | – | – |
| T119C | – | 0.0852 | – | 0.0643 | – | – |
| K7W | – | – | – | 0.0627 | – | – |
| K7S | – | 0.077 | – | – | – | – |
| Q118L | 0.215 | – | – | – | – | 0.08 |
| L61T | 0.0772 | – | 0.0862 | – | – | – |
| F95N | – | – | 0.0914 | 0.0654 | – | – |
| C111A | – | 0.056 | – | – | – | – |
| M83E | – | – | – | 0.0518 | – | – |
| A170I | – | – | – | 0.0277 | – | – |
| A170K | – | – | – | 0.0569 | – | – |
| A170R | – | 0.0391 | 0.0575 | – | – | – |
| A170F | – | – | – | 0.0561 | – | – |
| N186F | – | – | 0.0711 | 0.0676 | – | – |

| Variant | area with substrate ENLVFQS | area with substrate ENLEFQS | area with substrate ENLIFQS | area with substrate ENLSFQS | area with substrate ENLTFQS | area with substrate ENLMFQS |
| --- | --- | --- | --- | --- | --- | --- |
| N186H | – | – | 0.0508 | – | – | – |
| N186T | – | – | 0.0797 | 0.0731 | – | – |
| D91M | 0.0777 | – | 0.0772 | 0.0668 | 0.007 | – |
| I85A | 0.0728 | – | – | – | – | – |
| L211I | – | 0.0665 | – | – | – | 0.0756 |
| N177Q | – | – | 0.0975 | 0.0794 | – | – |
| N172W | – | – | – | – | – | 0.0705 |
| N172H | – | – | – | 0.06 | – | – |
| N172V | 0.0461 | – | – | 0.0472 | – | – |
| N172A | – | 0.0584 | – | – | – | – |
| K98V | 0.0942 | 0.0545 | – | – | 0.0771 | – |
| G153S | 0.0543 | – | – | – | – | – |
| G153Q | – | – | 0.052 | – | – | – |
| G138F | – | – | 0.109 | – | – | – |
| G138T | – | – | – | 0.0638 | – | – |
| G80L | – | – | – | 0.0496 | – | – |
| L99W | – | – | – | 0.0588 | 0.0666 | – |
| L99N | – | – | 0.0696 | – | – | – |
| V165M | – | – | – | – | – | 0.038 |
| V200D | – | – | – | 0.0807 | – | – |

Source: the supplement of paper PMC12217912
